Laboratory results reported in PubChem BioAssay AID1768 (National Center for Advancing Translational Sciences (NCATS), 2009).
Screen size: about 270,000 compounds; about 620 (0.23%) were called active. Inconclusive results, whose numbers are uncertain, are shown with a selection of clear calls. The call rests on the fitted dose curve; in most records, active means well fitted inhibition curve with a large enough effect in the polarisation, with a control signal flat (not every such curve was filed as active); inconclusive means small, poorly fitted or top-dose-only effect, or effect the other way, or a change in a side signal; inactive means no such curve, though single readings can be large or run the other way; the % refers to the polarisation. Potencies beside an inconclusive call are fits to weak or partial responses and may not hold up. A note “side channel” means that the fit belongs to a control or component signal, not to the main read-out.

Target: Menin (Homo sapiens) (UniProt O00255)
Experiment: qHTS Assay for Inhibitors Targeting the Menin-MLL Interaction in MLL Related Leukemias: Competition With Texas Red Labeled MLL-derived Mutant Peptide; on FP activity change, negative = inhibition: % of control where 0% means no effect
Details: fluorescence polarization; FP activity change, negative = inhibition: at 61.6 µM (top of the series)
Potency means the concentration at half of the fitted maximal effect; tags describe the fitted curve by direction and shape or compound fluorescence and quenching.

Sequence of UniProt O00255 (O00255 whole entry, looked up): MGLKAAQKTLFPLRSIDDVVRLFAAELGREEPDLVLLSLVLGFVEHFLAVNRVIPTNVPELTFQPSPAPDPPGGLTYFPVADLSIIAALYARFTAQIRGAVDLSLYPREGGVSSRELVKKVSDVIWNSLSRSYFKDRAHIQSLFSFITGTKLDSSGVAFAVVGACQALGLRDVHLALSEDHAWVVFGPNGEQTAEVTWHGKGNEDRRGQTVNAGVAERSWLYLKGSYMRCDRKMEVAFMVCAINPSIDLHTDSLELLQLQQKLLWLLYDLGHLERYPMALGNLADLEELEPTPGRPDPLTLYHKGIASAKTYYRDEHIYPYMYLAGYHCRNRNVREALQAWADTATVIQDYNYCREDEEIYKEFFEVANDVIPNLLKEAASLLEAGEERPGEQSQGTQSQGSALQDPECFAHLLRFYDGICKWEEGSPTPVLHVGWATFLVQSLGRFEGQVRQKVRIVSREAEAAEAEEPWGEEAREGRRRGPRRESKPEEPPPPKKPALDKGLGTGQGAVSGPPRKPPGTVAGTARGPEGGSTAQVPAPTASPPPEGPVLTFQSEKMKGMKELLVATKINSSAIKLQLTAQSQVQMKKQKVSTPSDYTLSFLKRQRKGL

**Q.** With `COc1cc(OC)cc(C(=O)/C=C2\Sc3ccccc3N2C)c1` as the compound, how does the Potency read?
**A.** The Potency was inconclusive: 28.2 µM [quencher, side channel, single point].

**Q.** Which Potency does the source give for `CCOc1ccc(S(=O)(=O)NCc2csc(C)n2)cc1` here?
**A.** The Potency was inconclusive: 25.1 µM [fluorescent, side channel, partial curve].

**Q.** `O=C(Cc1ccccc1)Nc1nnc(-c2ccco2)o1` was tested. Which “FP activity change, negative = inhibition” value did it give?
**A.** The value was inactive: 4.23%.

**Q.** With `CC(=O)Nc1ccc(S(=O)(=O)c2ccc(C)cc2)cc1` as the compound, how does the “FP activity change, negative = inhibition” value read?
**A.** The value was inactive: 9.62%.

**Q.** `COc1cc(CNCCc2ccccc2F)ccc1OCC(=O)N1CCCCC1` was tested. Which Potency did it give?
**A.** The Potency was inconclusive: 28.2 µM [inhibitor, single point].

**Q.** With `O=c1ccnc(NCCc2ccccc2)[nH]1` as the compound, how does the Potency read?
**A.** Its Potency is inconclusive: 14.1 µM [fluorescent, side channel, partial curve].

**Q.** With `Cc1[nH]n(-c2cccc3ccccc23)c(=O)c1C=Nc1ccc2[nH]c(=O)[nH]c2c1` as the compound, how does the Potency read?
**A.** The Potency was inconclusive: 31.6 µM [quencher, side channel, single point].

**Q.** `CCN1CCCc2cc(CN(CCN3CCOCC3)C(=S)Nc3ccc(OC)c(OC)c3)ccc21` was tested. Which Potency did it give?
**A.** Its Potency is inconclusive: 7.08 µM [inhibitor, partial curve].

**Q.** `Cc1onc(-c2ccccc2)c1C(=O)OCCOc1ccc([N+](=O)[O-])cc1[N+](=O)[O-]` was tested. Which Potency did it give?
**A.** The Potency was inconclusive: 4.47 µM [quencher, side channel, partial curve].

**Q.** Which Potency does the source give for `COc1ccc(NC(C)C(=O)N/N=C/c2c(O)ccc3ccccc23)cc1` (stereo not drawn) here?
**A.** Its Potency is inconclusive: 7.08 µM [quencher, side channel, partial curve].

**Q.** Which Potency does the source give for `O=[N+]([O-])c1ccc(N/N=C\c2cccn2-c2ccccc2)nc1` here?
**A.** Its Potency is inconclusive: 10 µM [quencher, partial curve].

**Q.** How did the Potency turn out when `COc1ccc(OC)c(NC(=O)/C=C/c2ccccc2[N+](=O)[O-])c1` was run?
**A.** Its Potency is inconclusive: 28.2 µM [quencher, side channel, partial curve].

**Q.** For `COc1ccc(-n2cc(-c3ccccc3)c3c(NN4CCOCC4)ncnc32)cc1`, which Potency is on record?
**A.** Its Potency is inconclusive: 31.6 µM [fluorescent, side channel, single point].

**Q.** With `COCCn1c(SCC(=O)NC(C)c2ccccc2)nc2ccccc21` (stereo not drawn) as the compound, how does the Potency read?
**A.** Its Potency is inconclusive: 10 µM [inhibitor, partial curve].

**Q.** With `COc1cccc(/C=N/NC(=O)c2cc(-c3cccn3C)n[nH]2)c1O` as the compound, how does the Potency read?
**A.** Its Potency is inconclusive: 25.1 µM [quencher, side channel, single point].

**Q.** Which “FP activity change, negative = inhibition” value does the source give for `COc1ccc(OC)c(Nc2nc3nonc3nc2N2CCCC(C)C2)c1` (stereo not drawn) here?
**A.** The value was inactive: -2.52%.

**Q.** `COC(=O)C1=C(C)NC(=S)NC1c1ccc(-c2cccc(Cl)c2)o1` (stereo not drawn) was tested. Which Potency did it give?
**A.** The Potency was inconclusive: 39.8 µM [quencher, side channel, single point].

**Q.** `CNC(=O)c1ccccc1NC(=O)c1cccc(S(=O)(=O)N2CCC(C)CC2)c1` was tested. Which Potency did it give?
**A.** The Potency was inconclusive: 25.1 µM [quencher, side channel, partial curve].

**Q.** Which Potency does the source give for `C/C(=N/Nc1ccccc1[N+](=O)[O-])c1ccc(C)c([N+](=O)[O-])c1` here?
**A.** The Potency was inconclusive: 35.5 µM [inhibitor, single point].

**Q.** With `CC(C)(Oc1ccc(Cl)cc1)C(=O)NC1=NN(c2ccccc2)C(=O)C1` as the compound, how does the Potency read?
**A.** Its Potency is inconclusive: 12.6 µM [quencher, side channel, partial curve].

**Q.** `CCc1ccc2nc(N(CCCN(C)C)C(=O)c3ccc(S(=O)(=O)N4CCCc5ccccc54)cc3)sc2c1` was tested. Which Potency did it give?
**A.** Its Potency is inconclusive: 3.16 µM [fluorescent, side channel, full curve].

**Q.** For `CCc1ccc(-c2nc(CN3CCC(C(=O)N4CCN(c5ccccn5)CC4)CC3)c(C)o2)cc1`, which Potency is on record?
**A.** The Potency was inconclusive: 8.91 µM [inhibitor, partial curve].

**Q.** Which Potency does the source give for `CN(C)c1ccc(NC(=O)c2sc(SCC(=O)Nc3nccs3)nc2N)cc1` here?
**A.** The Potency was inconclusive: 14.1 µM [quencher, side channel, partial curve].

**Q.** Which Potency does the source give for `CC(=O)c1c(C)oc2ccc(NS(=O)(=O)c3ccc(F)cc3C)cc12` here?
**A.** Its Potency is inconclusive: 20 µM [fluorescent, side channel, single point].

**Q.** How did the Potency turn out when `COc1ccc(-c2nc(CS(=O)CC(=O)NCc3ccc(C)cc3)c(C)o2)cc1OC` (stereo not drawn) was run?
**A.** Its Potency is inconclusive: 25.1 µM [inhibitor, single point].

**Q.** Which Potency does the source give for `O=C(Nc1cc(Br)ccc1O)C1CC(c2c(F)cccc2Cl)=NO1` (stereo not drawn) here?
**A.** The Potency was inconclusive: 25.1 µM [quencher, side channel, partial curve].

**Q.** How did the “FP activity change, negative = inhibition” value turn out when `CC(=O)Oc1ccc2cc(-c3ccccc3)c(=O)oc2c1` was run?
**A.** Its value is inactive: 40.6%.

**Q.** How did the Potency turn out when `c1ccc(-c2ccc(-n3ccnc3)cc2)cc1` was run?
**A.** Its Potency is inconclusive: 14.1 µM [fluorescent, side channel, partial curve].

**Q.** `CCn1c2c(c3cc(Br)ccc31)CCC/C2=N\O` was tested. Which Potency did it give?
**A.** The Potency was inconclusive: 14.1 µM [quencher, side channel, partial curve].

**Q.** How did the Potency turn out when `C/C(=N/NC(=O)c1ccc(NC(=O)c2ccc(F)cc2)cc1)c1ccccc1` was run?
**A.** Its Potency is inconclusive: 5.62 µM [inhibitor, single point].

**Q.** For `CCCCN(CCCC)S(=O)(=O)c1ccc(C(=O)Nc2nnc(COC)o2)cc1`, which Potency is on record?
**A.** The Potency was inconclusive: 25.1 µM [quencher, side channel, partial curve].

**Q.** Which Potency does the source give for `CCOC(=O)/C(N=Nc1sc(C(=O)OCC)c(C)c1C(=O)OCC)=C(\C)O` here?
**A.** The Potency was inconclusive: 15.8 µM [fluorescent, side channel, single point].

**Q.** How did the Potency turn out when `COc1cc(/C=N/N=C2/NC(=O)C(Cc3ccccc3)S2)ccc1O` (stereo not drawn) was run?
**A.** The Potency was inconclusive: 15.8 µM [quencher, side channel, partial curve].

**Q.** Which Potency does the source give for `O=C(NNC(=O)c1ccccc1Br)c1ccc(SCC2CCCO2)c([N+](=O)[O-])c1` (stereo not drawn) here?
**A.** The Potency was inconclusive: 8.91 µM [inhibitor, single point].

**Q.** With `O=C1CCCC(O)=C1N=Nc1cccc(C(=O)O)c1` as the compound, how does the “FP activity change, negative = inhibition” value read?
**A.** The value was inactive: 9.12%.

**Q.** With `COc1ccc(N)c2c1C(=O)c1ccccc1C2=O` as the compound, how does the Potency read?
**A.** Its Potency is inconclusive: 31.6 µM [fluorescent, side channel, partial curve].

**Q.** How did the Potency turn out when `O=C(NNc1nc2ccc(Cl)cc2s1)c1cc(-c2cccs2)nc2ccccc12` was run?
**A.** Its Potency is inconclusive: 10 µM [quencher, side channel, partial curve].

**Q.** `CCOC(=O)c1ccc(NS(=O)(=O)c2ccc3oc(=O)[nH]c3c2)cc1` was tested. Which Potency did it give?
**A.** Its Potency is inconclusive: 10 µM [quencher, side channel, full curve].

**Q.** `O=C(N/N=C/c1ccc(O)cc1)c1ccc(NC(=O)c2ccccc2Br)cc1` was tested. Which Potency did it give?
**A.** The Potency was inconclusive: 39.8 µM [quencher, side channel, single point].

**Q.** How did the Potency turn out when `O=C(Nc1nc(-c2ccccc2)cs1)c1ccccc1NS(=O)(=O)c1ccc(F)cc1` was run?
**A.** The Potency was inconclusive: 4.47 µM [quencher, side channel, partial curve].

**Q.** How did the Potency turn out when `OCC1(CCc2ccccc2)CCN(Cc2cnc(N3CCCC3)s2)CC1` was run?
**A.** Its Potency is inconclusive: 5.01 µM [fluorescent, side channel, full curve].

**Q.** `Cc1ccc(-n2nc(C(=O)NN)c(C)c(C#N)c2=O)cc1Cl` was tested. Which Potency did it give?
**A.** The Potency was inconclusive: 31.6 µM [quencher, side channel, single point].

**Q.** Which Potency does the source give for `O=C(/C=C/c1ccccc1Cl)Nc1ccc2c(c1)C(=O)NC2=O` here?
**A.** Its Potency is inconclusive: 10 µM [inhibitor, partial curve].

**Q.** `COc1ccc(-c2cc(-c3cc(C)ccc3O)[nH]n2)cc1` was tested. Which Potency did it give?
**A.** The Potency was inconclusive: 12.6 µM [quencher, side channel, partial curve].

**Q.** With `O=[N+]([O-])c1cc([N+](=O)[O-])c(Oc2cccnc2Br)cc1NN1CCCCC1` as the compound, how does the Potency read?
**A.** Its Potency is inconclusive: 7.94 µM [quencher, side channel, full curve, poor fit].

**Q.** With `NS(=O)(=O)c1ccc(NC(=O)COC(=O)c2cn(-c3ccccc3)nc2-c2ccc(F)cc2)cc1` as the compound, how does the Potency read?
**A.** The Potency was inconclusive: 10 µM [quencher, side channel, partial curve].

**Q.** With `CCOC(=O)c1c(C)n(C)c2ccc(O)c(CN(C)C)c12` as the compound, how does the Potency read?
**A.** Its Potency is inconclusive: 5.01 µM [inhibitor, full curve, poor fit].

**Q.** How did the Potency turn out when `Cc1ccc(C)c(Cn2cnc3c(nnn3-c3ccc(F)cc3)c2=O)c1` was run?
**A.** The Potency was inconclusive: 28.2 µM [fluorescent, partial curve].

**Q.** How did the Potency turn out when `O=S1(=O)NC(C2CC2c2ccccc2)CCO1` (stereo not drawn) was run?
**A.** The Potency was inconclusive: 0.355 µM [inhibitor, full curve].

**Q.** `COc1ccc(C(=O)N2CCC3(CCN(C)CC3)CC2)cc1` was tested. Which “FP activity change, negative = inhibition” value did it give?
**A.** Its value is inactive: 3.72%.

**Q.** `COC(=O)c1sccc1NC(=O)c1ccc(OC)cc1OC` was tested. Which “FP activity change, negative = inhibition” value did it give?
**A.** The value was inactive: -11.4%.

**Q.** With `CCCCn1c(=O)[nH]c(=O)c2c1nc(-c1ccc(OCCC)c(OCC)c1)n2CCOC` as the compound, how does the Potency read?
**A.** The Potency was inconclusive: 8.91 µM [fluorescent, side channel, full curve, poor fit].

**Q.** `O=c1ccc(NS(=O)(=O)c2ccc(Cl)cc2)cn1Cc1ccc(Cl)c(Cl)c1` was tested. Which Potency did it give?
**A.** The Potency was inconclusive: 22.4 µM [quencher, side channel, single point].

**Q.** For `COc1ccc(CCNC(=O)c2csc3c2CCCC3)cc1`, which Potency is on record?
**A.** The Potency was inconclusive: 3.55 µM [fluorescent, side channel, partial curve, poor fit].

**Q.** Which Potency does the source give for `Cc1ccc(Nc2nc(-c3sc(NC(=O)c4ccco4)nc3C)cs2)cc1` here?
**A.** The Potency was inconclusive: 25.1 µM [quencher, side channel, partial curve].

**Q.** Which “FP activity change, negative = inhibition” value does the source give for `Cc1ccc(-c2ccccc2NC(=O)C2C3C=CC(C3)C2C(=O)O)o1` (stereo not drawn) here?
**A.** The value was inactive: 8.51%.

**Q.** `Cc1ccccc1S(=O)(=O)Cc1ccc(C(=O)NCCN2CCCCC2C)o1` (stereo not drawn) was tested. Which Potency did it give?
**A.** The Potency was inconclusive: 3.16 µM [inhibitor, partial curve].

**Q.** `CCc1ccccc1N=C1S/C(=C/c2ccccc2OCC(=O)N2CCOCC2)C(=O)N1C` was tested. Which Potency did it give?
**A.** Its Potency is inconclusive: 20 µM [fluorescent, side channel, single point].
